In the RNAGym collection of RNA variant scans (doi:10.7554/elife.90254):
The source gives no read counts; variants with many changes may rest on few reads.

B1: LINE1-mini (parent)
chain: GGCAGAGCUCAACACAGCGUGGCAAAGUGGCUGUGGCUAGACUGCC

Variants of: B1
Assay: self-cleavage, relative activity (ratio to wild type); higher = more cleavage; in vitro, sequencing; the parent is a self-cleaving ribozyme

Variant | self-cleavage
G1A G7C U9C G36U A41U | 0.09
G1A C10A G40C | 0.04
G1A C10A G40A | 0
G1A G2U A4C A12C C13A A41U | 0.04
G1A C10G G22U C37U | 0.04
G1A C8A C15G G33C C46G | 0.38
G1A C8G C15A C45U | 0.4
G1A A25U A26U A39C | 0.04
G1A C10A C23U | 0.13
G1A C10A A26U C37U U43C | 0.02
G1A C18U A24G G33U | 0.01
G1A C10G A41G | 0.04
G1A G2C U9C U38C U43A | 0.01
G1A C18G A41C | 0.02
G1A G2A C15U G30C U34G G35A G44C | 0.17
G1A C15G G30U | 0.07
G1A G2C C15A G33U | 0.04
G1A G17U G29U U38A | 0.04
G1A C15U A16U G36U | 0.11
G1A G7C A24U G36U | 0.29
G1A G2U A12C U20A U28A | 0.02
G1A G5C G35U G36A G44A | 0.05
G1A G2A C13G A14G G17A | 0.53
G1A C18U U20G U38G | 0.01

Variant | self-cleavage
G1A G5A C8G G21A U34C | 0.11
G1A G2C G29A G36A | 0.38
G1A C10G U32C | 0.08
G1A G5A U9A U38G | 1.03
G1A C8A A25G | 0.15
G1A C8G A24G | 0.1
G1A C23A A26U G27C C31A G33A U38A C42U | 0.03
G1A G5U A26C G27A | 0.02
G1A C10A A14C G30A | 0
G1A C3U A6G | 0.36
G1A C3U C10A | 0.1
G1A G5A A26C G29U | 0.13
G1A C8G C15A A26U | 0.03
G1A C3U C10U C15G G19U C45G | 0.06
G1A A41C U43C | 0.13
G1A C15G G21U | 0.04
G1A A16C G36C | 0.15
G1A C3A A6U A14U | 0.57
G1A G2C A11C C46A | 0.01
G1A C10A U34G | 0.07
G1A G7A G27A | 0.56
G1A C8A C23A | 0.37
G1A C8A C10U A24U A41C | 0.14
G1A G2C G5A G30C C46A | 0.35

Variant | self-cleavage
G1A A25C G35U C37U A39G | 0
G1A G17U G21U G33C | 0.04
G1A A24C A25G U34G G35C G44C | 0.08
G1A C8A C13A G30U | 0.92
G1A G2A A26U C31G G35C C45U | 0.29
G1A C15U C18A G30U C37U | 0.04
G1A C10G G36A G44U | 0
G1A G17A G35U | 0.12
G1A C3U C18G U32G C46A | 0.2
G1A A41U C45A | 0.11
G1A C3A G33C | 0.15
G1A G5C U9C G27C U43C | 0.03
G1A G19C G22U G27A C46U | 0.89
G1A G7C C10A C13A G30A | 0.1
G1A A26C U34G | 0.73
G1A C15U G36A | 0.05
G1A G2A A4U G30U G36U C37A | 1.93
G1A C13G G35U | 2.1
G1A C13U G19A | 0.13
G1A C13U G22C A26G U28C A39G | 0.09
G1A A26C G30A G33A C45G | 0.15
G1A G2U C3A U38G A39G | 1.64
G1A G5A C15U A16G G36U C46G | 0.09
G1A C8U C18G G19C G44U | 0.25

Variant | self-cleavage
G1A C8U A12G | 0.07
G1A G7A G29A | 0.46
G1A G19A C23A | 1.61
G1A C10A G36A | 0.01
G1A C10G A12C G19C C45A | 0.01
G1A G2A C45A | 0.76
G1A A16G G17C G27C U38A C45U | 0.08
G1A C23A C31G G40C | 0.02
G1A G5U C46G | 0.14
G1A G7A G17A A39C | 0.3
G1A C13U C31G G36C A39C | 0.04
G1A G5U A14G G40U | 0.02
G1A A24U G30U | 1.72
G1A G2C G5A G27U A39G | 0.19
G1A C3U G29U G36C A41C C46U | 0.12
G1A C3U U9A A24G U32A G35C | 0.29
G1A G19C G30A C42U | 1.44
G1A A25U G40C | 0.06
G1A C10A A39C | 0
G1A C15G G19C G21U C46U | 0.14
G1A C13G C31G | 0.04
G1A A25C G29A G36A A39C | 0.08
G1A G5A U28A U38A | 0.06
G1A A24U G44C | 0.8

Variant | self-cleavage
G1A C15G G44U | 0.08
G1A G5A C42A | 0.13
G1A A26U G29A A39G | 0.13
G1A C45G C46A | 0.17
G1A C15U G21A C31G | 0.04
G1A A26U A39C | 0.11
G1A G5A C15U | 0.1
G1A G2C A41C C42A | 0.06
G1A C10A A26C A39U A41U | 0.58
G1A C10A A16U C37U U38A A39G | 0.05
G1A G5A C18A G21C G27U | 0.11
G1A A39U C46A | 2.3
G1A C10U A11G | 0.03
G1A C8U G29U | 0.3
G1A C13U A26C U38C | 0.11
G1A C10G C15U A25C U32A U43C | 0.01
G1A A26U G40A C42U | 0.02
G1A A26G G35A | 0.12
G1A G2C C10U G17A | 0.03
G1A C10U A16G | 0.16
G1A G2C G29A U34A | 0.22
G1A G7A A25U G35U | 0.23
G1A G2U G5A C10A G22C A24C | 0.02
G1A G7A A41U | 0.39

Variant | self-cleavage
G1A G2U G7C A16G | 0.05
G1A C23U U28C | 1.12
G1A G5U G17U G33U | 0.07
G1A G5A A14U U38A | 0.11
G1A G17A G19C G21C | 1.4
G1A G2U G27C U32G U38C C42A | 0.05
G1A G2U U32A | 0.01
G1A A14U U32G | 0.05
G1A G7A U20G G29U C42A | 0.12
G1A G2U C8G | 0.03
G1A C13G U20C G22A C31A G33U U43C | 0.02
G1A C13G G33A | 0.09
G1A G2U C10A A24U G29A C37G U43A | 0.01
G1A C3A A16C G17A G21U U38C | 0.99
G1A G7A A39U | 0.93
G1A C8A G17C G22A | 0.77
G1A C8G G29U | 0.21
G1A A16U G36U | 0.17
G1A C15G G30C G44C | 0.03
G1A A25G G30C G40C | 0.04
G1A A16U G29C G30A | 0.33
G1A C13A G19A C23G A25U G33C | 0.18
G1A C10A C13A G27C | 0.05
G1A G7C G44A | 0.52

Variant | self-cleavage
G1A G17C A25U | 0.96
G1A G17C C37A | 0.06
G1A G2U G22C A39G G40C | 0.03
G1A C10A C37U A39G | 0.03
G1A C23A G33A C42U U43C C46A | 0.03
G1A C13G G19A | 0.44
G1A C13A C31G G40C | 0.02
G1A G7C C18U C46U | 0.39
G1A G2U G35A G36U | 0.07
G1A G19A U34A G35A U38C | 0.03
G1A A24C C31A | 0.07
G1A C3U G5C A6G C45G | 0.09
G1A G7A C15A G27U A39U C46A | 0.57
G1A G17U G33A G36U C45U | 0.04
G1A C15U G44A | 0.06
G1A C13A A26C G27U G44C | 0.12
G1A C13A G17A C31A | 0.04
G1A C8U C15U A24C | 0.05
G1A G7A G21U | 0.45
G1A C15U G30A U38G | 0.06
G1A G19A U34G | 0.33
G1A C13G C18U G22C A26U | 0.17
G1A C18G A26C G27A C37G | 0.03
